# Structures can show the parent of a compound that is named as a salt. At least one structure is not confirmed: it was looked up by name or label, or the drawing left a doubt.
# Biological target: T1, Na⁺/H⁺ exchanger (Rattus norvegicus, UniProt P26431)
# T1 construct: using the vascular smooth muscle cells isolated from the rat thoracic aorta; endogenous in cells; host or cells: primary vascular smooth muscle cells isolated from rat thoracic aorta
# Test: Inhibition of Na+/H+ exchanger activity in vitro (change in cell viability during acid loading)
# Type: cell-based
# Details: minimum effective concentration (MEC); change in cell viability during acid loading; vascular smooth muscle cells isolated from the rat thoracic aorta
# T1 sequence (P26431 whole entry): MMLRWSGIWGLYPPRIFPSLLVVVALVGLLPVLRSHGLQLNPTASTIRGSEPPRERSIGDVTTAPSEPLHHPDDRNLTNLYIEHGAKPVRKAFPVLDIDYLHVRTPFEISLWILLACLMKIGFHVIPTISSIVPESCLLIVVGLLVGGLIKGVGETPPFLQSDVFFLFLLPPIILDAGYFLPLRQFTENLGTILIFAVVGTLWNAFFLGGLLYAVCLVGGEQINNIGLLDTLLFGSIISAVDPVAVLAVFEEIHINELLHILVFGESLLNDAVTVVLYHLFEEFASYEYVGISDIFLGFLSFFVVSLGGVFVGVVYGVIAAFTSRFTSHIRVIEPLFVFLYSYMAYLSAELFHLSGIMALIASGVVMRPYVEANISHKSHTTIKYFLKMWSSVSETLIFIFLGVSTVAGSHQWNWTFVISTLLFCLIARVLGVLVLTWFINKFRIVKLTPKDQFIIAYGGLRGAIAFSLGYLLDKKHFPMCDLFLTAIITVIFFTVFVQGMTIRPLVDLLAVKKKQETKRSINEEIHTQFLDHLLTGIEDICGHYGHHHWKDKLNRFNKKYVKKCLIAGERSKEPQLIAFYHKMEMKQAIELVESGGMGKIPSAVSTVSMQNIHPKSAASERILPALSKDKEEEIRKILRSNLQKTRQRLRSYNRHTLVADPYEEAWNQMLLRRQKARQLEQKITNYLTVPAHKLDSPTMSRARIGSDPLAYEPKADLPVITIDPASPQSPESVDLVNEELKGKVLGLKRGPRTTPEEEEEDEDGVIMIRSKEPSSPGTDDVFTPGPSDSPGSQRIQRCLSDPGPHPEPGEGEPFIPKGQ
row,SMILES,Inhibition of Na^+/H^+ Exchanger MEC [µM]
1,"Cn1c(C(=O)N=C(N)N)cc2c(Cl)cc(OCc3ccc(CN)cc3)cc21 [Example 203, 6-[4-(aminomethyl)benzyloxy]-4-chloro-1-methyl-2-indoloylguanidine dihydrochloride]",0.001
2,"COCCn1c(C(=O)NC(=N)N)cc2ccccc21 [Example 54, 1-(2-Methoxyethyl)-2-indoloylguanidine hydrochloride]",0.3
3,"Cn1c(C(=O)NC(=N)N)cc2c(Cl)ccc(OCC(O)CO)c21 (stereo not shown) [Example 127, 4-Chloro-7-(2,3-dihydroxypropoxy)-1-methyl-2-indoloylguanidine hydrochloride]",0.1
4,"Cc1ccc(Oc2ccc(N)cc2)c2c1cc(C(=O)N=C(N)N)n2C [Example 195, 7-(4-aminophenoxy)-1,4-dimethyl-2-indoloylguanidine hydrochloride]",0.01
5,"CN(C)CCn1c(C(=O)NC(=N)N)cc2c(Cl)cccc21 [Example 81, 4-Chloro-1-(2-dimethylaminoethyl)-2-indoloylguanidine dihydrochloride]",>10
6,"Cn1c(C(=O)N=C(N)N)cc2c(Cl)ccc(OCc3ccccc3)c21 [Example 61, 7-Benzyloxy-4-chloro-1-methyl-2-indoloylguanidine hydrochloride]",0.3
7,"COn1c(C(=O)N=C(N)N)cc2ccccc21 [Example 102, 1-methoxy-2-indoloylguanidine hydrochloride]",10
8,"CN(C)Cc1ccc(COc2cc(Cl)c3cc(C(=O)N=C(N)N)n(C)c3c2)cc1 [Example 205, 4-chloro-6-[4-(dimethylaminomethyl)benzyloxy]-1-methyl-2-indoloylguanidine dihydrochloride]",0.003
9,"CCCn1c(C(=O)NC(=N)N)cc2ccccc21 [Example 53, 1-Propyl-2-indoloylguanidine hydrochloride]",1.0
10,"NC(N)=NC(=O)c1cc2ccccc2n1CCN1CCOCC1 [Example 147, 1-[2-(N-Morpholinyl)ethyl]-2-indoloylguanidine dihydrochloride]",>10
11,"Cn1c(C(=O)NC(=N)N)cc2cccc(OCCO)c21 [Example 124, 7-(2-Hydroxyethoxy)-1-methyl-2-indoloylguanidine hydrochloride]",0.3
12,"CN(C)CCCOc1cc(C(F)(F)F)c2cc(C(=O)N=C(N)N)n(C)c2c1 [Example 150, 6-(3-dimethylaminopropoxy)-1-methyl-4-trifluoromethyl-2-indoloylguanidine dihydrochloride]",0.1
13,"Cn1c(C(=O)N=C(N)N)cc2cccc(Oc3ccccc3N)c21 [Example 187, 7-(2-aminophenoxy)-1-methyl-2-indoloylguanidine hydrochloride]",0.1
14,"Cn1c(C(=O)N=C(N)N)cc2c(C(F)(F)F)cc(OCc3ccccc3)cc21 [Example 182, 6-Benzyloxy-1-methyl-4-trifluoromethyl-2-indoloylguanidine hydrochloride]",0.3
15,"N=C(N)NC(=O)c1cc2c(C(F)(F)F)cccc2n1CCCN1CCCC1 [Example 179, 1-[3-(N-Pyrrolidinyl)propyl]-4-trifluoromethyl-2-indoloylguanidine dihydrochloride]",0.3
16,"CC(C)Oc1cc(OCCCN(C)C)cc2c1cc(C(=O)N=C(N)N)n2C [Example 158, 6-(3-Dimethylaminopropoxy)-4-isopropoxy-1-methyl-2-indoloylguanidine dihydrochloride]",0.1
17,"N=C(N)NC(=O)c1cc2ccccc2n1Cc1ccc([N+](=O)[O-])cc1 [Example 38, 1-(4-Nitrobenzyl)-2-indoloylguanidine hydrochloride]",3.0
18,"Cn1c(C(=O)N=C(N)N)cc2ccc(OCC(N)=O)cc21 [Example 66, 6-Carbamoylmethoxy-1-methyl-2-indoloylguanidine dihydrochloride]",0.3
19,"CC(=O)Nc1ccc2c(c1)cc(C(=O)N=C(N)N)n2C [Example 98, 5-Acetamido-1-methyl-2-indoloylguanidine hydrochloride]",>10
20,"Cc1ccc2cc(C(=O)N=C(N)N)n(C)c2c1 [Example 11, 1,6-Dimethyl-2-indoloylguanidine hydrochloride]",0.3
21,"Cn1c(C(=O)N=C(N)N)cc2c(Cl)cccc21 [Example 5, 4-chloro-1-methyl-2-indoloylguanidine hydrochloride]",0.03
22,"Cn1c(C(=O)NC(=N)N)cc2cccc(N)c21 [Example 90, 7-Amino-1-methyl-2-indoloylguanidine hydrochloride]",10
23,"Cn1c(C(=O)N=C(N)N)cc2ccc(Cl)cc21 [Example 7, 6-Chloro-1-methyl-2-indoloylguanidine hydrochloride]",0.3

row,SMILES,Inhibition of Na^+/H^+ Exchanger MEC [µM]
1,"Cc1cc(OCCCN)cc2c1cc(C(=O)N=C(N)N)n2C [Example 149, 6-(3-Aminopropoxy)-1,4-dimethyl-2-indoloylguanidine dihydrochloride]",0.3
2,"Cn1c(C(=O)N=C(N)N)cc2c(C(F)(F)F)ccc(Oc3ccc(N)cc3)c21 [Example 194, 7-(4-aminophenoxy)-1-methyl-4-trifluoromethyl-2-indoloylguanidine hydrochloride]",0.1
3,"COc1cccc2c1cc(C(=O)N=C(N)N)n2C [Example 22, 4-Methoxy-1-methyl-2-indoloylguanidine hydrochloride]",0.3
4,"Cn1ccc2ccc(C(=O)N=C(N)N)cc21 [Example 14, 1-Methyl-6-indoloylguanidine hydrochloride]",>10
5,"Cn1c(C(=O)NC(=N)N)cc2cc(N)ccc21 [Example 89, 5-Amino-1-methyl-2-indoloylguanidine hydrochloride]",>10
6,"Cn1c(C(=O)N=C(N)N)cc2c(Cl)cc(OCCN3CCCC3)cc21 [Example 166, 4-Chloro-1-methyl-6-[2-(N-pyrrolidinyl)ethoxy]-2-indoloylguanidine dihydrochloride]",0.1
7,"Cn1c(C(=O)NC(=N)N)cc2c(CO)cccc21 [Example 123, 4-hydroxymethyl-1-methyl-2-indoloylguanidine hydrochloride]",3.0
8,"Cc1ccc(OCCN(C)C)c2c1cc(C(=O)N=C(N)N)n2C [Example 156, 1,4-Dimethyl-7-(2-dimethylaminoethoxy)-2-indoloylguanidine dihydrochloride]",0.3
9,"N=C(N)NC(=O)c1cc2c(Cl)cccc2n1CCCO [Example 130, 4-Chloro-1-(3-hydroxypropyl)-2-indoloylguanidine hydrochloride]",0.03
10,"Cn1c(C(=O)N=C(N)N)cc2c(Cl)ccc(Oc3ccccc3[N+](=O)[O-])c21 [Example 201, 4-chloro-1-methyl-7-(2-nitrophenoxy)-2-indoloylguanidine hydrochloride]",0.01
11,"N=C(N)NC(=O)c1cc2c(Cl)cccc2n1CCCN [Example 120, 1-(3-Aminopropyl)-4-chloro-2-indoloylguanidine dihydrochloride]",0.1
12,"CN(C)Cc1ccc(COc2ccc(Cl)c3cc(C(=O)N=C(N)N)n(C)c23)cc1 [Example 204, 4-chloro-7-[4-(dimethylaminomethyl)benzyloxy]-1-methyl-2-indoloylguanidine dihydrochloride]",0.003
13,"CN(C)CCCn1c(C(=O)NC(=N)N)cc2c(C(F)(F)F)cccc21 [Example 141, 1-(3-dimethylaminopropyl)-4-trifluoromethyl-2-indoloylguanidine dihydrochloride]",0.3
14,"NC(N)=NC(=O)c1cc2ccccc2n1CCCO [Example 109, 1-(3-Hydroxypropyl)-2-indoloylguanidine hydrochloride]",1.0
15,"Cn1c(C(=O)N=C(N)N)cc2cc(OCc3ccccc3)ccc21 [Example 32, 5-Benzyloxy-1-methyl-2-indoloylguanidine hydrochloride]",>10
16,"Cn1c(C(=O)N=C(N)N)cc2c(Cl)ccc(Oc3cccc(N)c3)c21 [Example 189, 7-(3-aminophenoxy)-4-chloro-1-methyl-2-indoloylguanidine hydrochloride]",0.01
17,"COc1ccc(OCCCN(C)C)c2c1cc(C(=O)N=C(N)N)n2C [Example 159, 7-(3-Dimethylaminopropoxy)-4-methoxy-1-methyl-2-indoloylguanidine dihydrochloride]",1.0
18,"Cn1cc(C(=O)N=C(N)N)c2ccccc21 [Example 3, 1-methyl-3-indoloylguanidine hydrochloride]",>10
19,"N=C(N)NC(=O)c1ccc2c(ccn2Cc2ccccc2)c1 [Example 82, 1-benzyl-5-indoloylguanidine hydrochloride]",3.0
20,"CN(C)CCn1c(C(=O)NC(=N)N)cc2ccccc21 [Example 80, 1-(2-Dimethylaminoethyl)-2-indoloylguanidine dihydrochloride]",3.0
21,"Cn1c(C(=O)NC(=N)N)cc2c(Cl)ccc(OCCN)c21 [Example 121, 7-(2-Aminoethoxy)-4-chloro-1-methyl-2-indoloylguanidine dihydrochloride]",0.1
22,"N=C(N)NC(=O)c1cc2ccccc2n1CCC(O)CO (stereo not shown) [Example 133, 1-(3,4-Dihydroxybutyl)-2-indoloylguanidine hydrochloride]",1.0
23,"Cn1c(C(=O)NC(=N)N)cc2c(Cl)ccc(OCCCO)c21 [Example 128, 4-Chloro-7-(3-hydroxypropoxy)-1-methyl-2-indoloylguanidine hydrochloride]",0.03

# From patent EP0708091A1, “Indoloylguanidine derivatives” (SUMITOMO PHARMACEUTICALS COMPANY, LIMITED, priority 1994, dated 1996)
